Laboratory results reported in PubChem BioAssay AID624417 (National Center for Advancing Translational Sciences (NCATS), 2012).
About 6,400 (1.6%) of roughly 410,000 compounds were called active. Inconclusive means that the source gave no clear call. Such entries were picked first, then a sample of the others. Calls follow the shape of the dose curve; as a rule, active = well fitted inhibition curve with a large enough effect; inconclusive = small, poorly fitted or top-dose-only effect; inactive = no such curve, though single readings can be large or run the other way. No potency is given beside an inconclusive call; the fits are too rough.

biological target: Glucagon-like peptide 1 receptor (Homo sapiens) (UniProt P43220); test: qHTS of GLP-1 Receptor Inverse Agonists (Inhibition Mode); conditions: HEK293 GLP-1R CRE-luciferase, luminescence, 24 h, GLP-1R form is constitutively active; series mostly up to 38.3 µM; also: nearly all actives have a fitted effect of over 55% in size
Chain of UniProt P43220 (P43220 whole entry, looked up): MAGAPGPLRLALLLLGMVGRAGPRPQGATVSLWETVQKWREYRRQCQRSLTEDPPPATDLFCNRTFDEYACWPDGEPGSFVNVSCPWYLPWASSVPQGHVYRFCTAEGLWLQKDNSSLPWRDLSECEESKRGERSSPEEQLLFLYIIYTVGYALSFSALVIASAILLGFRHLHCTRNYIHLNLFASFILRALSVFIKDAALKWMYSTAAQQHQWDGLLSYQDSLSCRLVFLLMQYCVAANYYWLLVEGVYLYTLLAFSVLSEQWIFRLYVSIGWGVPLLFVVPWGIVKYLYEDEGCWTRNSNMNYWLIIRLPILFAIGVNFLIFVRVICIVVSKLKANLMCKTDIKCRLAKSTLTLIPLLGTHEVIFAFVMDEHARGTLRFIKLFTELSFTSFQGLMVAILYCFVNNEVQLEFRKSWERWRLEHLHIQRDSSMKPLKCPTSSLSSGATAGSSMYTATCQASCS
Method in brief: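 Stable HEK293 clone (constitutively active GLP-1R + cAMP-response luciferase); 200 cells/uL plated, 12 h pre-culture, compound 24 hr, 37 deg C/5% CO2; detection reagent 12 min RT; luminescence.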
Potency is read from the fitted curve at half-maximal effect; tags tell the direction and shape of the fitted curve.

SMILES	Potency
Cc1ccc(NC(=O)C(=O)NCCCN2CCCC2=O)cc1	inconclusive [inhibitor, partial curve, poor fit]
CCCC[C@@H]1CNC(=O)C(=O)N1CCCc1cc(OC)c(OC)c(OC)c1	inactive
N/N=C1\CCCc2c1[nH]c1ccc([N+](=O)[O-])cc21	inactive
CCN1CCN(S(=O)(=O)c2ccc(Cl)c(C(=O)N(C)CCOc3ccc(Cl)cc3)c2)CC1	inconclusive [inhibitor, single point]
Nc1cccc(-c2cc(-c3ccccc3)nc(-c3cccc(N)c3)n2)c1	inconclusive [inhibitor, single point]
Cn1c(CSCc2ccc(F)cc2)nnc1SCC(=O)N1CCN(c2ccccc2)CC1	inconclusive [inhibitor, single point]
Cc1ccccc1Cc1c(C)nc2c(C(=O)N3CCN(Cc4ccc5c(c4)OCO5)CC3)cnn2c1C	inactive
COc1ccc(OCC(=O)Nc2ccccc2N2CCCCC2)cc1	inconclusive [inhibitor, full curve, poor fit]
Cc1cccc(C)c1NC(=O)CN(C)C(=O)C(c1ccccc1)c1ccccc1	inconclusive [inhibitor, partial curve, poor fit]
CCN1CCN(c2nc(Nc3cccc(F)c3)nc(N)c2[N+](=O)[O-])CC1	inconclusive [inhibitor, single point]
COc1cc(COCC(O)CN2CCN(Cc3ccc4c(c3)OCO4)CC2)cc(OC)c1OC (stereo unspecified)	inconclusive [inhibitor, partial curve, poor fit]
CC1CCCN(CC(=O)Nc2ccc(S(=O)(=O)N3C(C)CCCC3C)cc2)C1 (stereo unspecified)	inactive
CC(/C=C/c1ccccc1)=N\NC(=S)NC(C)C	inconclusive [inhibitor, full curve, poor fit]
Cc1ccc(S(=O)(=O)N2C[C@H]3C(=O)C[C@@H](c4ccccc4)N(S(=O)(=O)c4ccc(C)cc4)[C@H]3C[C@H]2c2ccccc2Cl)cc1	inconclusive [inhibitor, partial curve, poor fit]
Cc1ccccc1CN1CCCC(C(=O)Nc2ccccc2Oc2cccnc2)C1 (stereo unspecified)	inconclusive [inhibitor, single point]
CN(C)c1ccc(CN(Cc2ccco2)C(=O)c2ccc(F)cc2)cc1	inconclusive [inhibitor, single point]
O=C(Cn1cc(COc2cccc([N+](=O)[O-])c2)nn1)c1ccc(O)cc1	inconclusive [inhibitor, single point]
Cc1ccc(-n2nc3c(N4CCC(C(=O)N(C)Cc5ccccc5)CC4)nnc(C)c3c2C)cc1	inactive
COc1ccccc1-c1nc(-c2ccccc2)nc(N2CCN(C)CC2)c1C#N	inconclusive [inhibitor, partial curve, poor fit]
C=CCNc1nc(NCCOc2ccccc2Cl)c2sc(-c3ccccc3)cc2n1	inactive
CCCCCCn1c(=O)n2n(c1=O)C[C@]1(OC(=O)NCc3ccccc3F)CN(S(=O)(=O)c3ccc(C)cc3)C[C@]1(O)C2	inconclusive [inhibitor, partial curve, poor fit]

SMILES	Potency
COc1ccc(CC(N)c2csc(NC(=O)Nc3cc(OC)ccc3OC)n2)cc1 (stereo unspecified)	inconclusive [inhibitor, single point]
COc1cccc(NC(=O)CN(C)CC(=O)Nc2ccc3c(c2)CCC3)c1	inconclusive [inhibitor, partial curve, poor fit]
COc1cc(C)ccc1OCCOCCOc1cc(C)c(C)cc1Br	inconclusive [inhibitor, single point]
CC(C)c1ccc(/C=C/C(=O)NCCC2=CCCCC2)cc1	inconclusive [inhibitor, single point]
COC(=O)c1cccc(Nc2nc3ccccc3nc2C)c1	inconclusive [inhibitor, single point]
CC(=O)Nc1cccc(NC(=O)Cc2csc(COc3cccc(C)c3)n2)c1	inactive
N#Cc1cccc(NC(=O)COC(=O)Cn2nc(-c3ccccc3)oc2=O)c1	inactive
O=C(NCC1CCCN1S(=O)(=O)c1cccs1)c1ccc(Cl)cc1 (stereo unspecified)	inconclusive [inhibitor, partial curve, poor fit]
CCc1c(C)c2ccc(OCC(=O)NCC3CCC(C(=O)O)CC3)cc2oc1=O (stereo unspecified)	inactive
COc1cccc(NC(=O)C2CCCN2S(=O)(=O)c2ccc3nc(-c4ccccc4)[nH]c3c2)c1 (stereo unspecified)	inconclusive [inhibitor, single point]
COc1cccc(C2=NN(C(=O)c3ccccc3)C(O)(C(F)(F)F)C2)c1 (stereo unspecified)	inconclusive [inhibitor, partial curve, poor fit]
O=C(CSCc1c(Cl)cccc1Cl)NCC1CCCO1 (stereo unspecified)	inconclusive [inhibitor, single point]
Cc1cc(C)c(-c2csc(Cc3nc(-c4cc5ccccc5oc4=O)cs3)n2)cc1C	inconclusive [inhibitor, single point]
COc1ccc(OCc2nc(C#N)c(NCc3ccccc3Cl)o2)cc1	inconclusive [inhibitor, single point]
CC(N)C(=O)NC(CO)C(O)C(N)C=O (stereo unspecified)	inconclusive [inhibitor, partial curve, poor fit]
Cc1ccc(NC(=O)CSc2cccc3cccnc23)c(C)c1	inconclusive [inhibitor, single point]
Fc1ccc(-c2csc3ncnc(N4CCc5ccccc5C4)c23)cc1	inconclusive [inhibitor, partial curve, poor fit]
O=C1C=CC(=O)N1	inactive
O=C(c1ccc([N+](=O)[O-])cc1)N(Cc1ccccc1)Cc1ccccc1	inconclusive [inhibitor, partial curve]
CCC(C)(C)C1CCC2(CC1)NC(=O)N(CC(=O)NCCc1c[nH]c3ccccc13)C2=O (stereo unspecified)	inconclusive [inhibitor, full curve]
